Measurements taken from the RNAGym collection of RNA variant scans (doi:10.7554/elife.90254).
The source gives no read counts; variants with many changes may rest on few reads.

B1: LINE1-mini (parent)
chain: GGCAGAGCUCAACACAGCGUGGCAAAGUGGCUGUGGCUAGACUGCC

Variants of: B1
Experiment: self-cleavage, relative activity (ratio to wild type); higher = more cleavage; in vitro, sequencing; the parent is a self-cleaving ribozyme

| Variant | self-cleavage |
| --- | --- |
| GGCAGACCUCCACACAGCGUGGCAAAGUGCCUGUGGCUAGACUGCC | 0.03 |
| GGCAGACCUCCACACAGCGUGGCAAAGUGGCUGUGGCUAGACUUCC | 0.02 |
| GGCAGACCUCGACCCAGCGUGUCGAAGUGGAUCUGGCUAGACUGCU | 0 |
| GGCAGACCUCGACGGAGCGUGGCAAAGUGGCUGUGGCUAGUUGGCC | 0 |
| GGCAGACCUCGACUCAGCGUGGCAAAGUGGCUGUCGCUAGACUGCC | 0.03 |
| GGCAGACCUCGACACAGAGUGGCAAAGUGGCUUUGGCUAGACUGCC | 0.01 |
| GGCAGACCUCGACACAGAGUGGCAAAGUGGCUGGGGCUAGACUGCC | 0.03 |
| GGCAGACCUCGACACAGUGUGGCAAAAUGGCUGUGGCUAGACUGCC | 0.01 |
| GGCAGACCUCUACCCAGCGUGGCAAAGUGGCUGUGGCUAGACUGCC | 0.06 |
| GGCAGACCUCUACACCGUGUGGCAAAGUGUCUGUGGCUAGACUGAC | 0.01 |
| GGCAGACCUCUACAGAGCGUGGCAAAGUGGCUGUGGCUAGCCUGCC | 0 |
| GGCAGACCUCUACACAGCGUGGCAAAAUGGCUGUGGCUAGACUGCC | 0.01 |
| GGCAGACCUCUACACAGCGGGGCAAAGUGGCUGUAGCUAGACUGCC | 0.03 |
| GGCAGACCUCACCACCGCGUGGCAAAGUGGCUGUAGCGAAAGUGCC | 0.06 |
| GGCAGACCUCACCACAGCGUGGCAAUGUGGCUGUGGCUAGACUGCC | 0 |
| GGCAGACCUCACCACAGCGUUGCAAAGUGGCUGUGGAUAGACUGCC | 0.01 |
| GGCAGACCUCAGCCCAGCGUGGCAAAGUGGCUAUGGCUAGACUGCG | 0.19 |
| GGCAGACCUCAGCACAGCGUGGCCAAGUGGCGAUGGCUAGACUGCC | 0.42 |
| GGCAGACCUCAGUACAGCGUGGCAAAGUGGCUGUGGCUUGACUGCC | 0.04 |
| GGCAGACCUCAGUAUAGCGUGGCAAAGUGGCUGGGGCUAGACUGCC | 0.03 |
| GGCAGACCUCAGCACAGAGUGGCAAAGCGGCUGUGGCUAGACUACC | 0 |
| GGCAGACCUCAGCACAGCGUGGCAAAGUGGCUGUGGAUAUACUGCC | 0.04 |
| GGCAGACCUCAGCACAGCGUGACAAAGUGGCUGUGGCUAGACUCCC | 0.01 |

| Variant | self-cleavage |
| --- | --- |
| GGCAGACCUCAGCACAGCGUGGCAAAGCGACUGUGGCUAGACUGCC | 0.01 |
| GGCAGACCUCAUCACAACGUGGCAAAGUGGCUGUGGCUAGACUGCC | 0.07 |
| GGCAGACCUCAUCACAGCCUGGCAAAGUGGCAGUGGCCAGACUGCC | 0.01 |
| GGCAGACCUCAUCACAGCGUGGCAAAUUCGCUGUGGCUAGACUGCC | 0.02 |
| GGCAGACCUCAUCACAGCGUGGCAAAGUGGCUAUGGCCAGACUGCC | 0.02 |
| GGCAGACCUCAACCGAGCGUGGCAAAUCGGCUGUGGCGAGACUGCA | 0.01 |
| GGCAGACCUCAACCCAGCGUGGGAUAGUGGCUGUGGCUAGACUGCC | 0.02 |
| GGCAGACCUCAACCCAGCGUGGCAAAGUGGCUGUCGCUAGACUGCC | 0.03 |
| GGCAGACCUCAACGAAGCGUGGUAAUGUGGCUGUGGUUAGACUGCC | 0.04 |
| GGCAGACCUCAACGAAGCGUGGUAAAGUGGCUGUUGCUAGUCUGCC | 0 |
| GGCAGACCUCAACGCAGCGUGGAGAAGUGGCUGUGGCAAUACUGCC | 0.1 |
| GGCAGACCUCAACGCAGCGUGGCAAAGUGGCUGUGGCUAGACUGUC | 0.07 |
| GGCAGACCUCAACGCAGCGUAGCAAAGUGGCUGUGGCUAGACUGCC | 0.04 |
| GGCAGACCUCAACGCAGCGUGGCAAAUUGGCAGUGGCUAGACUGCC | 0.25 |
| GGCAGACCUCAACGCAGCGUGGCAAAGUGGCGGUGGCUAGACUGCC | 0.08 |
| GGCAGACCUCAACUAAGCGUGGCAAAGUGGCUGUGGCUAGACUGCC | 0.16 |
| GGCAGACCUCAACUUAGCGUGGCAAAGUGGCUGUGGAUAGACUUCC | 0.24 |
| GGCAGACCUCAACUCAGCGUGACAAAGUGGCUGUGGCGAGACUGCC | 0.01 |
| GGCAGACCUCAACUCAGCGUGGCAAAGUGGCUGUGGCUAAACUGCC | 0.34 |
| GGCAGACCUCAACUCAGCGUGGCAAAGUGGCUGUGGCGAGACUGCC | 0.01 |
| GGCAGACCUCAACUCAGCGUGGCAAAGUGGCUGUGGCUAGACAGCC | 0.01 |
| GGCAGACCUCAACACCACGUUGCAAAGUGGCUGUGGGUAGACAGCC | 0.03 |
| GGCAGACCUCAACACCGCGUGGCAAAGUGGCUGUCGCUAGACUGCC | 0.05 |

| Variant | self-cleavage |
| --- | --- |
| GGCAGACCUCAACACCGCGUGGCAAAGUGGCAGUGGCUAGACUGCC | 0.04 |
| GGCAGACCUCAACACGGUGUGGCAAAGUGGCUGUCGCUAGACUGCC | 0.01 |
| GGCAGACCUCAACACGGCGUAGCAAAGUGGCUGUGGCUAGACUGCA | 0 |
| GGCAGACCUCAACACGGCGUCGCAAAGUGGCUGUGGCUAGACUGCC | 0.06 |
| GGCAGACCUCAACACUGCGUGGCAUAGUGGCUGUAGCUAGACUGCC | 0.06 |
| GGCAGACCUCAACACAGCGUGGCCAAGUGGCUGUGACUAGACAGCC | 0.05 |
| GGCAGACCUCAACACAGCGUGGCGUAGUGGCUGUGGCUAGACUGCC | 0.1 |
| GGCAGACCUCAACACAGCGUGGCGAAGUGGCUGUGGCUAGACUUCC | 0.05 |
| GGCAGACCUCAACACAGCGUGGCUAAGUGGCUGUGGGAAAACUGCC | 0.38 |
| GGCAGACCUCAACACAGCGUGGCACAGUGGCUGUGGCUAGACUCCG | 0.01 |
| GGCAGACCUCAACACAGCGUGGCACAGUGGCUGUGGCAAGACUGCC | 0 |
| GGCAGACCUCAACACAGCGUGGCAGAGUGGCUGUGGCUAGGCUGCC | 0 |
| GGCAGACCUCAACACAGCGUGGCAGAGUGGCUGAGGCUAGACUGCG | 0.02 |
| GGCAGACCUCAACACAGCGUGGCAACGUGGCUGUGGCUAGACUGAC | 0.02 |
| GGCAGACCUCAACACAGCGUGGCAACGUAGCUGUGGCUAGACUGCC | 0.14 |
| GGCAGACCUCAACACAGCGUGGCAACGUGUCUGUGGCUAGACUGCC | 0.03 |
| GGCAGACCUCAACACAGCGUGGCAACGUGGCUAUGGCUAGACUUUC | 0.02 |
| GGCAGACCUCAACACAGCGUGGCAACGUGGCUGUGGCCAGACUACC | 0.15 |
| GGCAGACCUCAACACAGCGUGGCAAGGUGACUGUGGCUAGACUGCC | 0.27 |
| GGCAGACCUCAACACAGCGUGGCAAGGUGGCAGUGGCUAGACUACC | 0.05 |
| GGCAGACCUCAACACAGCGUGGCAAGGUGGCUGAGGCUAGACUGCC | 0.05 |
| GGCAGACCUCAACACAGCGUGGCAAUGUGGCUGUGGCUAGACUGAC | 0.08 |
| GGCAGACCUCAACACAGCGUGGCAAUGUGGCUAUGGCUAGACUGCG | 0.1 |

| Variant | self-cleavage |
| --- | --- |
| GGCAGACCUCAACACAGCGUGGCAAAGUGGCUGUGGCUCACCUGCC | 0.08 |
| GGCAGACCUCAACACAGCGUGGCAAAGUGGCUGUGGCUAGUCUACC | 0.14 |
| GGCAGACAUCUACACAGCGUGGCAAAGUGGCUGUGGCUAGACUGCC | 0.02 |
| GGCAGACAUCAAUACAGCGUGGCAACGUGGCUGUGGCUAGAAUGCC | 0.21 |
| GGCAGACAUCAACAAAGCGUGGCAAAGUGGCUGUGGCUAGACUGCC | 0.36 |
| GGCAGACAUCAACACAACGUGGCAAAGCGGCUGUGGCUAGACUGCA | 0.74 |
| GGCAGACAUCAACACAGCAAGGCAAAGUGGCUGUGGCUAGACUGCC | 0.11 |
| GGCAGACAUCAACACAGCCUAGCAAAGUGGCUGUGGCUAGACUCCC | 0.03 |
| GGCAGACAUCAACACAGCGUCGAAAAGUGGCUGUGGCUAGACUGCC | 0.17 |
| GGCAGACAUCAACACAGCGUCGCAAAGUGGCUGUGGAUAGACUGCC | 0.12 |
| GGCAGACAUCAACACAGCGUGGCAAAGUGGCUCUGGCUAUACUGCC | 0.02 |
| GGCAGACAUCAACACAGCGUGGCAAAGUGGCUGUGCCUAGACUGCC | 0.28 |
| GGCAGACAACAACACAGGGCGGCAAAGUGGCUGUGGCUAGAGUGCC | 0.13 |
| GGCAGACAGCAACCCAGCGUUGCAAAGUGGCUGUGGCUAGACUGCC | 0.02 |
| GGCAGACAGCAAUACAGCGUGGAAAAGUGGCUGUGGCUAGAAUGCC | 0.02 |
| GGCAGACAGCAACACAGCGGGGCAAAGUGGCUGUGGCUAGUCUGCC | 0.01 |
| GGCAGACGUCAACACAGCGUGGCAUAGUGGCUGUGGCUAGACUCCC | 0.09 |
| GGCAGACGUCAACACAGCGUGGCAAUGUGGCUGUGGCUAGACUGCC | 0.18 |
| GGCAGACGUAAACACUGCGUGGCAUACUGGCUGUGGCUAGACUGCC | 0.02 |
| GGCAGACGUAAACACAGCGUGGCGAAGUGGCUGUGGGUAGACAGCC | 0.01 |
| GGCAGACGUAAACACAGCGUGGCAAAGUGGCUGUGGCUAGACUGUU | 0.05 |
| GGCAGACGUCAAGACGGCGUGGCAAAGUGGGUGUGGCUAGACUGCC | 0.01 |
| GGCAGACGUCAACACAGAGUGGCAAGGUGGCUGUAGCUAGACCGCC | 0.03 |

| Variant | self-cleavage |
| --- | --- |
| GGCAGACGUCAACACAGGGUGGAAAAGUGGUUGUGGCUAGACUGCC | 0.08 |
| GGCAGACGUCAACACAGCGUGGCAAAGUGGCUGUGGCUAGAUUGCC | 0.11 |
| GGCAGACGUCAACACAGCUUGGCAAAGUGGCUGUGGCUAGACUGCC | 0.07 |
| GGCAGACGUCAACACAGCGUGCCAAAGUGACUGUUGCUAGACUGCC | 0.06 |
| GGCAGACGUCAACACAGCGUGGCAAAGUGGCUGUGGCGAGACUGCC | 0.1 |
| GGCAGACUUCACCACAGCGUGGCAAAGUGGCUGUGGCUAGACUGCC | 0.02 |
| GGCAGACUUCAACACCGCGUGGCAAAGUUGCUGUGGCUAGACUGCC | 0.18 |
| GGCAGACUUCAAAACAGCGUGGCAAAGUGGCUGUGGCUAGACUGCC | 0.06 |
| GGCAGACUUCAACAGAGCGUGGCAAAGUGGCUGUGGCUAGACAGCC | 0.38 |
| GGCAGACUUCAACACAGGGUGGCAAAGUGGCUGUGGCUAAACCGCC | 0.05 |
| GGCAGACUUCAACACAGCAUGGCAAAUUCGCUGUGGCUAGACUGCC | 0.24 |
| GGCAGACUUCAACACAGCGUGUCAAAGUGGCUGUGGAUAGACUGCC | 0.07 |
| GGCAGACUACAACACAGCGUGGCAAAGUGGCUGUGGCUAGACUGCC | 0.06 |
| GGCAGACCUAAACACCGCGUGGCAAAGUGGCUGUGGCUAGACUUCC | 0 |
| GGCAGACCUAAACACAGCGUGGCACAGUGGCUGUGGCUAGACUGCC | 0 |
| GGCAGACCUAAACAGAGUGUGGCAAAGUGCCGGUGGGUAGACUGCC | 0.01 |
| GGCAGACCUAAACACAGUGUGGCAAAGUGAUUGUGGCUAGACUGCC | 0.03 |
| GGCAGACCUAAACACAGCGUGGCAAAGUGGAUGUGGCUAGGCUGCC | 0.02 |
| GGCAGACCUAAACACAGCGUGGCAAAGUGGCUGUGGCUAGACUGGC | 0 |
| GGCAGACCUAAACACAGCGUGGCAAAGUGGCUGUGGCUAGACUGCU | 0.01 |
